Reference: the BET-seq Pho4 binding data (Le et al. 2018)
Some of the results follow. These are noisy estimates, calculated here from bound and input reads.

Target: T1, Pho4 (S. cerevisiae) (UniProt P07270)
T1 sequence: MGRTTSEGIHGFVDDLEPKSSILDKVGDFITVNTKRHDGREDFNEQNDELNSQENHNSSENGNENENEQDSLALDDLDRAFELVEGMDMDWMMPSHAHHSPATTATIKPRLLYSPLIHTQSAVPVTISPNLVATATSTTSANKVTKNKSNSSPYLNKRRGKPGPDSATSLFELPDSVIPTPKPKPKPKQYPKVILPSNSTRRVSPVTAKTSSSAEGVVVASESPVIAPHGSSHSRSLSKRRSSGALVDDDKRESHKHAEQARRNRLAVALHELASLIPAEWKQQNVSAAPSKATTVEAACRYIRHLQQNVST
Assay: relative binding free energy (BET-seq); higher = weaker binding
Settings: reference: library average

Sequence | relative binding free energy [kcal/mol]
GTGAGCACGTGTCTTT | -0.04
ATCTTCACGTGGCGGG | 0.35
CTGGTCACGTGGGCTG | -0.1
GCTTGCACGTGGTTTG | -0.14
AGCCGCACGTGGGGTT | -0.12
TATTTCACGTGTCTGT | 0.2
AAGTGCACGTGAGGAC | 0.23
AAGTACACGTGGAGGA | 0.13
ATTGGCACGTGCTGGT | -0.29
TTCGTCACGTGGGTGG | 0.01
GAGGGCACGTGGAAGA | -0.05
GCGGTCACGTGATGGA | 0.24
ATTGTCACGTGAACGT | 0.28
TTCAACACGTGCGGGG | 0.07
AGGGACACGTGGCGGT | -0.07
GTGGTCACGTGATTTT | 0.26
TGAATCACGTGGTAGT | 0.16
GTGGGCACGTGGCTCT | -0.06
GGGCTCACGTGTATTA | 0.33
GGTATCACGTGGCTTA | 0.1
GTCTGCACGTGAAGGT | 0.28
GGTAGCACGTGAGTAG | 0.2
ATTGACACGTGGGTAT | -0.05

Sequence | relative binding free energy [kcal/mol]
GGAAACACGTGGTTGA | 0.03
TAGGACACGTGCGTTT | 0.1
TGTAGCACGTGCGGCT | -0.17
TCCGGCACGTGGGGGA | -0.2
CTTGGCACGTGTTGAT | -0.07
CGTTGCACGTGGAAGG | 0.02
CGGTACACGTGTAATG | 0.37
AGTGCCACGTGTGTGG | -0.11
TTGATCACGTGTCATT | 0.12
TGAATCACGTGTAAAG | 0.26
TATTACACGTGGCAGT | 0.01
TGGTTCACGTGATCTG | 0.24
AAGGTCACGTGTTGAG | 0.13
TAGAGCACGTGAGATT | 0.31
AACAACACGTGGTGTG | 0
TGTTGCACGTGGCGGC | -0.07
AGTGGCACGTGCGCGG | -0.27
TTCATCACGTGTGAGG | 0.15
ATTGTCACGTGTTTAA | 0.13
GATATCACGTGGGTAA | 0.13
GGAAGCACGTGGAGGA | -0.16
CAGGTCACGTGGTGCG | 0
TTAAGCACGTGTGAGG | -0.01

Sequence | relative binding free energy [kcal/mol]
AGTTACACGTGCTTGG | 0.19
TGGGTCACGTGTTTTA | 0.17
TTAGTCACGTGTGCAT | 0.12
CTTGGCACGTGAGCGT | -0.15
CAAGTCACGTGGGGTA | -0.1
GGCTGCACGTGTTGCT | 0.04
TTACGCACGTGGTTGT | -0.24
ACTGTCACGTGGATGG | 0.02
TGGTTCACGTGTTGGC | 0.37
TTTGTCACGTGTATGC | 0.08
CTTTACACGTGGTAGG | -0.05
AATATCACGTGATATG | 0.35
TCCGTCACGTGAGGGG | 0.29
CTGTGCACGTGTCGGA | 0.06
GCTTGCACGTGGTCGT | -0.06
GGATGCACGTGTAGGA | -0.14
TCTTTCACGTGTGTAG | 0.21
AATTACACGTGCGGGG | 0.07
TGCGACACGTGGTTTG | -0.12
TTGCGCACGTGATGTG | -0.08
AAGAGCACGTGGTAGG | -0.25
TCATTCACGTGGATTT | 0.33
GTATTCACGTGTACGT | 0.22

Sequence | relative binding free energy [kcal/mol]
AGTATCACGTGATCTT | 0.26
CGGATCACGTGGTATT | 0.11
CTGGGCACGTGTTATT | -0.08
TTGGCCACGTGTTTGG | 0.02
ATTCTCACGTGGGAGT | 0.04
GTGTCCACGTGGGCGT | -0.23
TATTACACGTGGATAT | 0.03
GTCAGCACGTGGAGGG | -0.14
TAGTACACGTGTTGCA | 0.12
TTGACCACGTGGTGAG | -0.13
ATGGTCACGTGGTTAA | -0.06
TAGTGCACGTGACGGG | 0.17
TTGGTCACGTGGAACG | 0.11
GGATTCACGTGGGAAG | 0.25
TGGGCCACGTGTTGGC | -0.13
TATATCACGTGGTTAG | 0.06
TTATACACGTGTTTTT | 0.1
CGAGTCACGTGATAGG | 0.08
GTGCTCACGTGGCTTT | 0.26
CTTTACACGTGGTTGC | 0.15
GTGAACACGTGGGCTG | -0.12
TGCGTCACGTGAGGTT | 0.3
GGTCGCACGTGGCGAT | 0

Sequence | relative binding free energy [kcal/mol]
ATGGCCACGTGAGGGC | 0.09
TCGTGCACGTGGTTTA | -0.08
GGTGCCACGTGGAGGG | -0.05
AGGGACACGTGGGGCG | -0.03
TGTGTCACGTGGACTT | 0.05
TGTGGCACGTGGACTA | -0.1
GTTGCCACGTGTAGTG | -0.03
AGTTTCACGTGAATCG | 0.33
TGAGCCACGTGTGTTT | 0.06
AGGGGCACGTGCGTAG | -0.15
GGGTCCACGTGGTAGC | 0.09
TTTGGCACGTGGTAAT | -0.07
GGGGCCACGTGAGAGT | 0.19
ATGGGCACGTGTAAAT | 0.08
ATAAACACGTGGAAGT | 0.09
TTTCACACGTGTGTTC | 0.11
AGGGGCACGTGGACAG | -0.19
GTGGACACGTGGTTCT | 0.02
TATTTCACGTGATCTT | 0.16
ATTTGCACGTGAGGAT | 0.18
CTGGACACGTGCGGGT | -0.05
GTGAGCACGTGTGTAG | -0.04
TTAATCACGTGTTTTA | 0.07
